According to PubChem BioAssay AID651820 (National Center for Advancing Translational Sciences (NCATS), 2012):
About 12,000 (3.5%) of roughly 340,000 compounds were called active. Inconclusive means that the source gave no clear call. Such entries were picked first, then a sample of the others. Calls come from the whole dose curve; as a rule, active = well fitted inhibition curve with a large enough effect; inconclusive = small, poorly fitted or top-dose-only effect, or another doubt; inactive = no such curve, though single readings can be large or run the other way. No potency is given beside an inconclusive call; the fits are too rough.

Experiment: qHTS Assay for Inhibitors of Hepatitis C Virus (HCV)
Settings: Huh7.5.1 HCVcc-Cre (HCVcc is cell-culture hepatitis C virus) infection, luciferase reporter, 44 h; series mostly up to 41.8 µM
Summary of the method: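 Reporter virus HCVcc-Cre (~0.5 moi) infects cells exposed to compound; seeding density 1,000 cells/well with 4 h settling beforehand. Luminescence, 15 sec read, taken 44 h post-infection following a 15 min RT substrate incubation.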
Potency is the fitted concentration of half-maximal effect; tags give direction and shape of the fitted curve.

SMILES	Potency
Cc1ccc2c(c1C)NC(=O)C21N2CCCC2C(C(=O)c2ccc3ccccc3c2)C12C(=O)Nc1ccccc12 (stereo not drawn)	inconclusive [inhibitor, single point]
CC1(C)CC(CCC(=O)NC(=S)Nc2ccccc2Cl)C(=O)O1 (stereo not drawn)	inconclusive [inhibitor, single point]
COc1ccc(OC)c(NC(=O)c2ccccc2N(Cc2ccccc2)S(C)(=O)=O)c1	inconclusive [inhibitor, single point]
Clc1ccc(-c2cc(C3CCNCC3)[nH]n2)cc1	inconclusive [inhibitor, single point]
O=S1(=O)CCOCCCN1Cc1ccccc1F	inactive
CC(C)(C)OC(=O)C[C@@H]1C/C=C\C[C@@H](CC(=O)N[C@H](CO)Cc2ccccc2)C(=O)NCCOC1=O	inactive
Cc1cccc(C)c1OCc1cc(C(=O)NCC2CCCCC2)no1	inactive
O=C(NCCCCc1ccccc1)c1cc([N+](=O)[O-])cc([N+](=O)[O-])c1	inconclusive [inhibitor, partial curve]
CC1=C(C(=O)OC(C)(C)C)C(c2ccc3ccccc3c2)NC(=O)N1C (stereo not drawn)	inconclusive [inhibitor, single point]
S=C(NNc1nc(Nc2ccccc2)nc(N2CCCCC2)n1)NC1CCCCC1	inconclusive [inhibitor, single point]
CSc1nsc2nc(=O)c(/C=C3\C=Nc4ccccc43)c(N)n12	inactive
N#Cc1ccc(Oc2ccc(NC(=O)C3CC=CCC3C(=O)O)cc2)cc1 (stereo not drawn)	inactive
CCN(CC)C(=O)CN(c1ccc(C)cc1)S(=O)(=O)c1ccc(SC)cc1	inactive
CCOC(=O)N1CCN(C(=O)COc2ccccc2OC)CC1	inconclusive [inhibitor, single point]
Cc1ccc(/C=C/C(=O)OCC(=O)NC(C)C)o1	inconclusive [inhibitor, single point]
CCCc1cc(=O)[nH]c(SCc2ccc(F)cc2)n1	inactive
COc1ccc(Cl)cc1NC(=O)COC(=O)C1CC(=O)N(Cc2ccccc2)C1 (stereo not drawn)	inconclusive [inhibitor, single point]
CN(C)c1ccc(/C=N/NC(=O)c2ccc3c(c2)OCO3)cc1	inactive
C/C(=C\C(=O)c1ccc(Br)cc1)N1CCCCC1	inconclusive [inhibitor, single point]
COc1cc(SC)ccc1C(=O)Nc1cccc(C)n1	active: 12.6 µM
COc1ccc(CNC(=O)CCC(=O)n2ncc3cc(C)ccc32)cc1	inactive
CCCCSc1nc2sc3c(c2c(=O)[nH]1)CCC3	inconclusive [inhibitor, single point]
C=CCN=C1N[C@@H](c2ccccc2)C(C(=O)OC)=C(C)N1CC	inactive
Cc1cc2cc(CN(CCN3CCOCC3)C(=O)Nc3ccccc3F)c(=O)[nH]c2cc1C	inactive

SMILES	Potency
CCCn1c(=O)c(C(=O)NCc2ccc(OC)c(OC)c2)c(O)c2ccccc21	active: 14.1 µM
COCCSc1ccccc1C(=O)Nc1ccc(Br)cc1	inactive
COc1ccc(-c2nc(CS(=O)CC(=O)N3CCc4ccccc4C3)c(C)o2)cc1 (stereo not drawn)	inconclusive [inhibitor, partial curve]
CCc1nc2ccccc2c(C(=O)OCC(=O)Nc2cccc(S(=O)(=O)NC3=NCCCCC3)c2)c1C	active: 8.91 µM
Cc1ccccc1NC(=O)Cc1nc(-c2c[nH]c(C(=O)N3CCCC3)c2)cs1	inconclusive [inhibitor, single point]
CCOc1ccc(/C=N/NC2=NCCCCC2)cc1	inactive
Oc1ccc(Nc2nc(-c3ccccc3O)nc3ccccc23)cc1	active: 11.2 µM
COc1ccc(-c2ccc3nnc(SCC(=O)Nc4ccc(NC(C)=O)cc4)n3n2)cc1	inactive
Cc1cc(C)c(C#N)c(SCC(=O)c2cc(C)n(CCc3ccccc3)c2C)n1	inconclusive [inhibitor, single point]
COc1cccc(C(=O)Nc2cccc(C(=O)NCC(C)C)c2)c1	inconclusive [inhibitor, single point]
CCNC(=S)N1CCN(S(=O)(=O)/C=C/c2ccccc2)CC1	inconclusive [inhibitor, single point]
CN(C)CCNC(=O)c1cccc2[nH]c(-c3ccncc3)nc12	inconclusive [inhibitor, single point]
CCOc1ccc(CCNC(=O)c2ccc(N3CCCC3=O)cc2)cc1OCC	inconclusive [inhibitor, single point]
Cc1cc(NC(=O)c2cc(-c3cccs3)on2)nn1Cc1ccc(Cl)cc1	inconclusive [inhibitor, single point]
COc1ccccc1N(C)S(=O)(=O)c1ccc(C(=O)OCC(N)=O)cc1	inactive
C/C(=N\Nc1ccc(Cl)c(C(=O)O)c1)c1cccc([N+](=O)[O-])c1	inactive
CN1CCc2c(sc3nc(SCC(N)=O)n(-c4ccc(Cl)cc4)c(=O)c23)C1	inconclusive [inhibitor, full curve]
O=C(COC(=O)CCNS(=O)(=O)c1ccccc1)NC(=O)Cc1ccccc1	inactive
CC(C)(C)OC(=O)N1CCC2(CC1)Oc1ccc(F)cc1C(=O)C21CC(c2cccnc2)=NO1 (stereo not drawn)	inactive
COc1cc(NC(=O)OCc2ccccc2)c2ncccc2c1	active: 14.1 µM
COc1cc(NC(=O)CSc2ncccc2C(=O)OC(C)C)cc(OC)c1	inconclusive [inhibitor, partial curve]
COc1ccccc1N1CCN(CC(=O)Nc2ccccc2C(=O)NCCc2ccccc2)CC1	inconclusive [inhibitor, single point]
O=C(/C=C/c1ccccc1)Nc1sc2c(c1C(=O)O)CCC2	inactive
CC(C)c1csc(CN2CCC(n3nccc3NC(=O)Cc3ccccc3)CC2)n1	inconclusive [inhibitor, single point]
